The list shows a part of the results. At the low end of the ranking the order means little.
What follows are sequences tested against GST-SBP-SLBP (stem-loop binding protein) (UniProt Q14493) (assay: targeted RNA Bind-n-Seq). Details: RBNS binding buffer: 25 mM Tris pH 7.5, 150 mM KCl, 3 mM MgCl2, 0.1% Tween, 0.5 mg/mL BSA, 1 mM DTT; 27 nM protein, 750 pM RNA pool; temperature not stated; high values mean tight binding.
In the case of “GGUCACGUCUCAAUCAACUCAAUAGAGGGGGGGAAAACCCCUUUACCCUCACCUUCAACAGCUCGCAGUCAAG”, the binding signal (log2 fold change) is reported as 0.223. “GGUCACGUCUCAAUCAACUCUUUUUCCAGGGAAAGCCCUGGCUAUUUCAACAGCUCGCAGUCAAG” showed a binding signal (log2 fold change) of -0.24. In the case of “GGUCACGUCUCAAUCAACUCAUCGCCCAGGGAAAGCCCUGGUAAUUUCAACAGCUCGCAGUCAAG”, the binding signal (log2 fold change) is reported as -0.248. “GGUCACGUCUCAAUCAACUCAACUUCAGGAGUUUCCUCCUGUAAACUCAACAGCUCGCAGUCAAG” showed a binding signal (log2 fold change) of 0.0404. With “GGUCACGUCUCAAUCAACUCAGUCCCAGGAGUUUCCUCCUGUUAAUUCAACAGCUCGCAGUCAAG” the binding signal (log2 fold change) was -0.266. For “GGUCACGUCUCAAUCAACUCUAUCCCAGGAGUUUUCUCCUGUUUACUCAACAGCUCGCAGUCAAG”, the binding signal (log2 fold change) was 0.11. “GGUCACGUCUCAAUCAACUCUUCCCCCAGGGAAAUCCCUGGCUAUCUCAACAGCUCGCAGUCAAG” was tested, and the binding signal (log2 fold change) was 0.019. With “GGUCACGUCUCAAUCAACUCACAAGAGGGGGGGAAAACCCCUUUACCCUCAUAAUCAACAGCUCGCAGUCAAG” the binding signal (log2 fold change) was 0.033. With “GGUCACGUCUCAAUCAACUCUUCUUCCAGGGAAACCCCUGGCAUAUUCAACAGCUCGCAGUCAAG” the binding signal (log2 fold change) was 0.228. “GGUCACGUCUCAAUCAACUCUAUCUCAGGAGUUUCCUCCUGUAAAUUCAACAGCUCGCAGUCAAG” gave a binding signal (log2 fold change) of 0.0554. Sequence “GGUCACGUCUCAAUCAACUCAUUUUCCAGGGAAAACCCUGGCAUAUUCAACAGCUCGCAGUCAAG” has a binding signal (log2 fold change) of -0.0195. Sequence “GGUCACGUCUCAAUCAACUCAUCCUCAGGAGUUUUCUCCUGUUUACUCAACAGCUCGCAGUCAAG” has a binding signal (log2 fold change) of 0.252. In the case of “GGUCACGUCUCAAUCAACUCAUCUUCAGGAGUUUGCUCCUGCAUUCUCAACAGCUCGCAGUCAAG”, the binding signal (log2 fold change) is reported as 0.17. “GGUCACGUCUCAAUCAACUCAAGUCCAGGAGUUUUCUCCUGUAAAUUCAACAGCUCGCAGUCAAG” gave a binding signal (log2 fold change) of 0.00976. “GGUCACGUCUCAAUCAACUCAUCCUCCAGGGAAAUCCCUGGCAAACUCAACAGCUCGCAGUCAAG” showed a binding signal (log2 fold change) of 0.0379. With “GGUCACGUCUCAAUCAACUCUUUUUCCAGGGAAACCCCUGGCAAUUUCAACAGCUCGCAGUCAAG” the binding signal (log2 fold change) was -0.164. Work on “GGUCACGUCUCAAUCAACUCAUUCUCAGGAGUUUACUCCUGCUUUCUCAACAGCUCGCAGUCAAG” yielded a binding signal (log2 fold change) of -0.049. In the case of “GGUCACGUCUCAAUCAACUCUACUCCCAGGGAAAGCCCUGGCUAACUCAACAGCUCGCAGUCAAG”, the binding signal (log2 fold change) is reported as 0.161. In the case of “GGUCACGUCUCAAUCAACUCUUCUUCAGGAGUUUUCUCCUGCUAAUUCAACAGCUCGCAGUCAAG”, the binding signal (log2 fold change) is reported as 0.0723. With “GGUCACGUCUCAAUCAACUCAAUCUCCAGGGAAAUCCCUGGCUUUCUCAACAGCUCGCAGUCAAG” the binding signal (log2 fold change) was 0.229. In the case of “GGUCACGUCUCAAUCAACUCUUCUUCCAGGGAAAACCCUGGUAUUCUCAACAGCUCGCAGUCAAG”, the binding signal (log2 fold change) is reported as 0.102.

Source: article PMC5892938
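Note: DESeq read counts versus GST-SBP nonspecific binding control pulldown.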
